From PMC9911399, “Two distinct binding modes provide the RNA-binding protein RbFox with extraordinary sequence specificity”
Positions count from the first letter of the chain named. The list shows a part of the results.

T1: RBFOX1 RRM (Homo sapiens, UniProt Q9NWB1 109-208)
T1 sequence: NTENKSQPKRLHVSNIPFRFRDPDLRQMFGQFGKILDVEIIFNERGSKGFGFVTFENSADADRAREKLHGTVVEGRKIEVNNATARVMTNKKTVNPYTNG

B1: CGACUUA (DNA:RNA)
RNA: GGGAGACCGGAAUUCAGAUUGUCCCGACUUAUUAAAUCCCGUCGUAGCCACCA
DNA 1: CAATCTGAATTCCGGTCTCCC
DNA 2: TGGTGGCTACGACGGGATT
B2: CGUUCGC (DNA:RNA)
RNA: B1 RNA with A27U, C28U, U29C, U30G, A31C
DNA 1: CAATCTGAATTCCGGTCTCCC
DNA 2: TGGTGGCTACGACGGGATT
B3: CGGACUA (DNA:RNA)
RNA: B1 RNA with A27G, C28A, U29C
DNA 1: CAATCTGAATTCCGGTCTCCC
DNA 2: TGGTGGCTACGACGGGATT
B4: CUGGAGC (DNA:RNA)
RNA: B1 RNA with G26U, A27G, C28G, U29A, U30G, A31C
DNA 1: CAATCTGAATTCCGGTCTCCC
DNA 2: TGGTGGCTACGACGGGATT
B5: GCUCAAU (DNA:RNA)
RNA: B1 RNA with C25G, G26C, A27U, U29A, U30A, A31U
DNA 1: CAATCTGAATTCCGGTCTCCC
DNA 2: TGGTGGCTACGACGGGATT
B6: AGUCUUA (DNA:RNA)
RNA: B1 RNA with C25A, A27U
DNA 1: CAATCTGAATTCCGGTCTCCC
DNA 2: TGGTGGCTACGACGGGATT
B7: AAGACUA (DNA:RNA)
RNA: B1 RNA with C25A, G26A, A27G, C28A, U29C
DNA 1: CAATCTGAATTCCGGTCTCCC
DNA 2: TGGTGGCTACGACGGGATT
B8: CCUCCUG (DNA:RNA)
RNA: B1 RNA with G26C, A27U, U29C, A31G
DNA 1: CAATCTGAATTCCGGTCTCCC
DNA 2: TGGTGGCTACGACGGGATT
B9: CCGAUGG (DNA:RNA)
RNA: B1 RNA with G26C, A27G, C28A, U30G, A31G
DNA 1: CAATCTGAATTCCGGTCTCCC
DNA 2: TGGTGGCTACGACGGGATT
B10: UGCUCGG (DNA:RNA)
RNA: B1 RNA with C25U, A27C, C28U, U29C, U30G, A31G
DNA 1: CAATCTGAATTCCGGTCTCCC
DNA 2: TGGTGGCTACGACGGGATT
B11: AGCAUCU (DNA:RNA)
RNA: B1 RNA with C25A, A27C, C28A, U30C, A31U
DNA 1: CAATCTGAATTCCGGTCTCCC
DNA 2: TGGTGGCTACGACGGGATT
B12: CGGAAUA (DNA:RNA)
RNA: B1 RNA with A27G, C28A, U29A
DNA 1: CAATCTGAATTCCGGTCTCCC
DNA 2: TGGTGGCTACGACGGGATT
B13: CGAGCUU (DNA:RNA)
RNA: B1 RNA with C28G, U29C, A31U
DNA 1: CAATCTGAATTCCGGTCTCCC
DNA 2: TGGTGGCTACGACGGGATT
B14: UCCGGGA (DNA:RNA)
RNA: B1 RNA with C25U, G26C, A27C, C28G, U29G, U30G
DNA 1: CAATCTGAATTCCGGTCTCCC
DNA 2: TGGTGGCTACGACGGGATT
B15: ACUAUGU (DNA:RNA)
RNA: B1 RNA with C25A, G26C, A27U, C28A, U30G, A31U
DNA 1: CAATCTGAATTCCGGTCTCCC
DNA 2: TGGTGGCTACGACGGGATT
B16: UUGAUUA (DNA:RNA)
RNA: B1 RNA with C25U, G26U, A27G, C28A
DNA 1: CAATCTGAATTCCGGTCTCCC
DNA 2: TGGTGGCTACGACGGGATT
B17: GGUGCGG (DNA:RNA)
RNA: B1 RNA with C25G, A27U, C28G, U29C, U30G, A31G
DNA 1: CAATCTGAATTCCGGTCTCCC
DNA 2: TGGTGGCTACGACGGGATT
B18: CGAUACA (DNA:RNA)
RNA: B1 RNA with C28U, U29A, U30C
DNA 1: CAATCTGAATTCCGGTCTCCC
DNA 2: TGGTGGCTACGACGGGATT
B19: AACUUGG (DNA:RNA)
RNA: B1 RNA with C25A, G26A, A27C, C28U, U30G, A31G
DNA 1: CAATCTGAATTCCGGTCTCCC
DNA 2: TGGTGGCTACGACGGGATT
B20: GUUAGAA (DNA:RNA)
RNA: B1 RNA with C25G, G26U, A27U, C28A, U29G, U30A
DNA 1: CAATCTGAATTCCGGTCTCCC
DNA 2: TGGTGGCTACGACGGGATT
B21: UGGAUAG (DNA:RNA)
RNA: B1 RNA with C25U, A27G, C28A, U30A, A31G
DNA 1: CAATCTGAATTCCGGTCTCCC
DNA 2: TGGTGGCTACGACGGGATT
B22: AUACAGG (DNA:RNA)
RNA: B1 RNA with C25A, G26U, U29A, U30G, A31G
DNA 1: CAATCTGAATTCCGGTCTCCC
DNA 2: TGGTGGCTACGACGGGATT
B23: CCAGCCG (DNA:RNA)
RNA: B1 RNA with G26C, C28G, U29C, U30C, A31G
DNA 1: CAATCTGAATTCCGGTCTCCC
DNA 2: TGGTGGCTACGACGGGATT
B24: UGCCCUC (DNA:RNA)
RNA: B1 RNA with C25U, A27C, U29C, A31C
DNA 1: CAATCTGAATTCCGGTCTCCC
DNA 2: TGGTGGCTACGACGGGATT
B25: CAAGACA (DNA:RNA)
RNA: B1 RNA with G26A, C28G, U29A, U30C
DNA 1: CAATCTGAATTCCGGTCTCCC
DNA 2: TGGTGGCTACGACGGGATT
B26: CUUCCAA (DNA:RNA)
RNA: B1 RNA with G26U, A27U, U29C, U30A
DNA 1: CAATCTGAATTCCGGTCTCCC
DNA 2: TGGTGGCTACGACGGGATT
B27: AGGCGCA (DNA:RNA)
RNA: B1 RNA with C25A, A27G, U29G, U30C
DNA 1: CAATCTGAATTCCGGTCTCCC
DNA 2: TGGTGGCTACGACGGGATT
B28: UUCAGGU (DNA:RNA)
RNA: GGGAGACCGGAAUUCAGAUUGUCCUUCAGGUUUAAAUCCCGUCGUAGCCACCA
DNA 1: CAATCTGAATTCCGGTCTCCC
DNA 2: TGGTGGCTACGACGGGATT
B29: CCGACGA (DNA:RNA)
RNA: B1 RNA with G26C, A27G, C28A, U29C, U30G
DNA 1: CAATCTGAATTCCGGTCTCCC
DNA 2: TGGTGGCTACGACGGGATT
B30: UCGUACC (DNA:RNA)
RNA: B28 RNA with U26C, C27G, A28U, G29A, G30C, U31C
DNA 1: CAATCTGAATTCCGGTCTCCC
DNA 2: TGGTGGCTACGACGGGATT
B31: AAGUCCG (DNA:RNA)
RNA: GGGAGACCGGAAUUCAGAUUGUCCAAGUCCGUUAAAUCCCGUCGUAGCCACCA
DNA 1: CAATCTGAATTCCGGTCTCCC
DNA 2: TGGTGGCTACGACGGGATT

molecular target: T1, RBFOX1 RRM; assay: EMSA; HiTS-Eq, 1 nM pool, 10 min; buffer printed only for the single-RNA assays: 10 mM Tris pH 7.5, 150 mM NaCl, 3.4 mM EDTA, 0.001% NP-40, 30 C; conditions: tags: His6 N-terminal (pET28a); label: 5' 32P
Summary of the method: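 These values rest on relative association constants, computed from read-count changes of each RNA species versus the control reaction and normalised to the cognate motif. Reads came from free RNA recovered by 8% native PAGE after purified RbFox RRM (wild type or mutant) at increasing concentrations was equilibrated for 10 min in 50 µL with 1 nM of a 5′-radiolabelled pool with 7 randomized nucleotides and DNA-annealed flanks.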

**Q.** Which binding signal does the source give for B1 here?
**A.** 0.00583 KA relative to UGCAUGU

**Q.** For B2, which binding signal is on record?
**A.** 0.0165 KA relative to UGCAUGU

**Q.** How did the binding signal turn out when B3 was run?
**A.** 0.0159 KA relative to UGCAUGU

**Q.** How did the binding signal turn out when B4 was run?
**A.** 0.0152 KA relative to UGCAUGU

**Q.** Which binding signal does the source give for B5 here?
**A.** 0.00854 KA relative to UGCAUGU

**Q.** B6 was tested. Which binding signal did it give?
**A.** 0.00517 KA relative to UGCAUGU

**Q.** Which binding signal does the source give for B7 here?
**A.** 0.00396 KA relative to UGCAUGU

**Q.** How did the binding signal turn out when B8 was run?
**A.** 0.0157 KA relative to UGCAUGU

**Q.** With B9 as the binder, how does the binding signal read?
**A.** 0.0149 KA relative to UGCAUGU

**Q.** With B10 as the binder, how does the binding signal read?
**A.** 0.0361 KA relative to UGCAUGU

**Q.** Which binding signal does the source give for B11 here?
**A.** 0.0119 KA relative to UGCAUGU

**Q.** How did the binding signal turn out when B12 was run?
**A.** 0.015 KA relative to UGCAUGU

**Q.** For B13, which binding signal is on record?
**A.** 0.0118 KA relative to UGCAUGU

**Q.** How did the binding signal turn out when B14 was run?
**A.** 0.00426 KA relative to UGCAUGU

**Q.** How did the binding signal turn out when B15 was run?
**A.** 0.00348 KA relative to UGCAUGU

**Q.** B16 was tested. Which binding signal did it give?
**A.** 0.0123 KA relative to UGCAUGU

**Q.** How did the binding signal turn out when B17 was run?
**A.** 0.0121 KA relative to UGCAUGU

**Q.** B18 was tested. Which binding signal did it give?
**A.** 0.00454 KA relative to UGCAUGU

**Q.** How did the binding signal turn out when B19 was run?
**A.** 0.00824 KA relative to UGCAUGU

**Q.** B20 was tested. Which binding signal did it give?
**A.** 0.0142 KA relative to UGCAUGU

**Q.** For B21, which binding signal is on record?
**A.** 0.0268 KA relative to UGCAUGU

**Q.** For B22, which binding signal is on record?
**A.** 0.00494 KA relative to UGCAUGU

**Q.** How did the binding signal turn out when B23 was run?
**A.** 0.00353 KA relative to UGCAUGU

**Q.** For B24, which binding signal is on record?
**A.** 0.012 KA relative to UGCAUGU

**Q.** B25 was tested. Which binding signal did it give?
**A.** 0.00187 KA relative to UGCAUGU

**Q.** Which binding signal does the source give for B26 here?
**A.** 0.00223 KA relative to UGCAUGU

**Q.** How did the binding signal turn out when B27 was run?
**A.** 0.0167 KA relative to UGCAUGU

**Q.** B28 was tested. Which binding signal did it give?
**A.** 0.0103 KA relative to UGCAUGU

**Q.** For B29, which binding signal is on record?
**A.** 0.00517 KA relative to UGCAUGU

**Q.** How did the binding signal turn out when B30 was run?
**A.** 0.0103 KA relative to UGCAUGU

**Q.** How did the binding signal turn out when B31 was run?
**A.** 0.00881 KA relative to UGCAUGU
